Results published in ChEMBL document CHEMBL4888484, “Replenishing the malaria drug discovery pipeline: Screening and hit evaluation of the MMV Hit Generation Library 1 (HGL1) against asexual blood stage Plasmodium falciparum ,using a nano luciferase reporter read-out” (2022).
Out of some 150,000 compounds screened, about 540 (0.36%) showed an effect of 50% or more. The list shows a part of the results.

These molecules were tested on Plasmodium falciparum (assay: Primary screen in NF54 nanoGlo assay, in single point, at 2uM, 72h; a lower Z score goes with more inhibition). Conditions: timepoint 72 hour.
Type: functional, Erythrocyte

Row | Compound | % Inhibition | Z score
1 | CN(Cc1ccccc1)[C@@H]1COC2(C1)CN(C(=O)c1ccc(F)cc1F)C2 | -12% | 2.1
2 | CCc1nn(C)c(Cl)c1CN1CC[C@H]1c1ccc(F)cc1 | -8% | 1.39
3 | Cc1ncccc1CNC(=O)N[C@H]1C[C@@H]1CC(C)(C)C | -11% | 2.02
4 | Cc1c(CN2CCC[C@H](O)CC2)[nH]c2ccc(Cl)cc12 | -12% | 2.19
5 | Cc1cc(C(=O)OCC(=O)N2CCCCC2C)c2c(c1)C(C)CCN2 (stereo unspecified) | 4% | -0.62
6 | COc1cc(C2C(C(=O)Nc3nc4ccccc4s3)CCC(=O)N2c2ccc3c(c2)OCO3)cc(OC)c1OC (stereo unspecified) | -3% | 0.47
7 | CC(C)(C)OC(=O)N1CC(C(=O)Nc2ccc(Br)c(O)c2)C1 | -11% | 1.47
8 | CCCN(CC(=O)OC(C)(C)C)C(=O)c1ccc(C(=O)NC)nc1 | 7% | -0.91
9 | Cc1cc(N)n(CC(=O)N[C@H]2CC(=O)N(CC(C)(C)C)C2)n1 | -9% | 1.17
10 | CNC(=O)C[C@H]1CCN(C(=O)CCC2CCCC2)C1 | -9% | 1.64
11 | O=C(c1csc(-c2ccc(N3CCOCC3)nc2)n1)N1CCCC1 | -11% | 1.22
12 | COc1ccc(-n2nc(Cc3ccccc3)n(CC(=O)NCC(N)=O)c2=O)cc1 | 2% | -0.32
13 | c1ccc(-c2ncn(Cc3csc(C4CCCCC4)n3)n2)nc1 | -22% | 4.4
14 | O=C(COCC(=O)N[C@H]1CCCc2occc21)NCc1cccnc1 | 13% | -1.88
15 | CCOCCN1CCN(c2nnc(C)c(C)c2C#N)C[C@@H]1CC | -5% | 0.44
16 | Cc1cccc([C@@H](NC(=O)C(C)(C)N2CCCC2)C2CC2)n1 | -11% | 1.41
17 | CC(C)Oc1ccc(C(=O)NCCN(C)C)cc1 | 4% | -0.54
18 | COCC[C@H]1CCCCN(Cc2cn(C(C)C)nc2C)C1 | 6% | -0.63
19 | COc1ccc(C(=O)N(CC(=O)N2CCN(c3ccc(-c4cccc(OC)c4)nn3)CC2)CC2CC2)cc1 | -16% | 1.75
20 | O=C(c1ccc(C(F)(F)F)s1)N1C[C@@H]2C[C@H](NS(=O)(=O)c3ccccc3)[C@H]1C2 | -14% | 2.31
21 | Fc1ccccc1CN[C@H]1CCCc2cn(CC(F)(F)F)nc21 | -15% | 1.65
22 | CC(Oc1cccnc1)C(=O)N1CCOC(CF)C1 (stereo unspecified) | -11% | 1.72
23 | CN(Cc1ccccc1)C(=O)[C@@H]1CN(S(C)(=O)=O)C[C@H]1c1ccncc1 | -9% | 1.08
24 | Cc1cc(C)cc(NC(=O)Cn2c(N3CCc4ccccc4C3)nc(C)cc2=O)c1 | -8% | 1.34
25 | Cc1cc(C)n(C(=O)C2CC2c2ccccc2)n1 (stereo unspecified) | -14% | 2.61
26 | Nc1ncc(Cl)cc1S(=O)(=O)N1CCN(Cc2cccs2)CC1 | -11% | 0.91
27 | Cc1nc(CC(=O)NCc2c(C)nn(C)c2C)c(C)s1 | -7% | 1.07

Row | Compound | % Inhibition | Z score
28 | CN(C)C(=O)[C@H]1N(C)CCCC12CCN(C(=O)COc1ccccc1)CC2 | -2% | 0.3
29 | C=CCOc1ccccc1CN(CC)Cc1cccn1-c1ncccn1 | 2% | -0.24
30 | C[C@H](Nc1nc2nonc2n2nnnc12)c1ccccc1 | 27% | -3.54
31 | Cc1ccc(Cl)cc1NS(=O)(=O)c1cc(-c2nc(C)c(C)s2)cs1 | -15% | 2.11
32 | Cc1ccc(-c2n[nH]c(NC(=O)Cc3ccc(C)c(O)c3)c2C)o1 | -2% | 0.22
33 | CC(C)S(=O)(=O)N1CC(Oc2ccc(-c3noc(-c4cccnc4)n3)cc2)C1 | -16% | 3.04
34 | O=C(Nc1ccccc1)N1C[C@@H]2COCCN2C2(C1)CN(C(=O)c1ccc(C(F)(F)F)cc1)C2 | 8% | -1.08
35 | CC(C)CCC(=O)Nc1ncccc1O | -11% | 1.18
36 | CCc1cnc(CNC(=O)Nc2cccc3oc(C)nc23)o1 | -1% | 0.05
37 | Cc1ccc(NC(=O)Nc2snnc2C(=O)Nc2cc(Cl)ccc2O)cc1 | 3% | -0.37
38 | CCCc1nc(C)c(CNc2cccc(C(=O)NC)c2C)o1 | -8% | 1.49
39 | Cc1cnc(C)c(N2CC[C@H]3[C@H](CCC(=O)N3CCc3c[nH]cn3)C2)n1 | -3% | 0.55
40 | CCc1cc(N2CCC(N3C[C@H]4CCN(C)[C@H]4C3)CC2)nc(N2CCCC2)n1 | 6% | -0.65
41 | CC[C@@H](C(=O)NCCCN1CCCC1)n1nc(C)c2nn(-c3ccccc3)c(C)c2c1=O | -2% | 0.23
42 | C[C@@H](C1CCCCC1)N(C)Cc1ncnn1CCF | -7% | 1.19
43 | COc1cccc(CN[C@H]2[C@H](O)[C@@H](n3cc(-c4ccccc4)cn3)[C@@H]3OC[C@H]2O3)c1 | -6% | 0.71
44 | CC[C@H](NC(=O)c1cc[nH]c1C1CC1)C1CCOCC1 | -8% | 0.82
45 | CCOc1cc(CNC2CCN(C(C)=O)CC2)ccc1OCc1c(F)cccc1Cl | 38% | -4.95
46 | CCc1n[nH]c2c1CN(Cc1cccc(OC)c1O[C@@H](C)C(=O)O)CC2 | -17% | 2.21
47 | O=C(c1ccc2c(c1)n(CC1CC1)c(=O)n2C1CCCCC1)N1CCNCC1 | -4% | 0.35
48 | COC1CCCCC1OC(=O)c1ccc(C(N)=O)cc1 (stereo unspecified) | -14% | 1.89
49 | CC(C)c1nn(C)c(Cl)c1C(=O)N[C@@H](C)C1CCCC1 | -5% | 0.67
50 | COc1ccc(-c2cnc3n2CCCC3)cc1 | -23% | 2.75
51 | O=C1c2ccccc2C(=O)N1c1ccc(S(=O)(=O)N2CCN(c3ccc(Cl)cc3)CC2)cc1 | 1% | -0.22
52 | O=c1cnccn1Cc1ccc(F)cc1F | -1% | 0.16
53 | Brc1cnn(Cc2nccn2Cc2ccccc2)c1 | -1% | 0.25
